Whole data set: some 5,400 compounds, median “IFI” near 2, cut for the highest 2% near 22. The list shows a part of the results.

This assay in a line: NOVARTIS: Inhibition Frequency Index (IFI) - the number of HTS assays where a compound showed > 50% inhibition/induction, expressed as a percentage of the number of assays in which the compound was tested. The format is functional.
As to `CCn1c(C)cc(/C=C2\C(=O)NC(=O)N(c3cccc(Cl)c3)C2=O)c1C`, the IFI came to 0%. On to `COc1cc2c3cc1Oc1c(OC)c(OC)cc4c1C(Cc1ccc(O)c(c1)Oc1ccc(cc1)CC3N(C)CC2)N(C)CC4` (stereo not given), for which the IFI came to 7.14%. The result for `Cc1c2ccccc2c(C)c2ccccc12` reads 3.76%; that for `CCC1CN2CCc3cc(OC)c(OC)cc3C2CC1CC1NCCc2cc(OC)c(OC)cc21` (stereo not given), 33.3%. The result for `CC(=O)N(C1=C(N(C)C)C(=O)c2ccccc2C1=O)c1cccc(Cl)c1` reads 7.14%. In the case of `CCC(=O)OC(C(C)C(=O)O)C(C)C1OC2(CCC(C)(C3CCC(C)(C4OC(C5OC(O)(CO)C(C)CC5C)CC4C)O3)O2)CC(O)C1C` (stereo not given), the IFI amounted to 8.62%.

For the compound `S=C(Nc1ccccc1)N1CCCN(c2nc3ccc(Cl)cc3s2)CC1`, the IFI amounted to 5.69%. Next, `Cc1ccc(CN2C3CCCC2CC(NC(=O)Nc2cccc(F)c2)C3)cc1` (stereo not given): 1.32%; `C=CC1CN2CCC1CC2C(OC(C)=O)c1ccnc2ccc(OC)cc12` (stereo not given): 1.63%.

Regarding `OC1(c2ccc(Cl)c(C(F)(F)F)c2)CCN(CCOC2c3ccccc3CSc3ccc(Cl)cc32)CC1` (stereo not given), the IFI is 2.38%. In turn, `COC(=O)c1ccc(Cn2cc(C=O)c3ccccc32)o1` displayed an IFI of 8.33%.

`Cc1ccc(O)c(C(=O)c2c[nH]c(-c3nc4ccccc4[nH]3)c2)c1` displayed an IFI of 0%.

`C=C[C@H]1CN2CC[C@H]1C[C@@H]2[C@@H](OC(=O)Cc1cccs1)c1ccnc2ccccc12` had an IFI of 2.5%. Consider `Cn1ncnc2c(=O)n(C)c(=O)nc1-2`, for which the IFI was found to be 26.7%.

Take `O=C1CN=C(c2ccccc2Cl)c2cc(Cl)ccc2N1Cc1cccc([N+](=O)[O-])c1`: the IFI came out at 1.92%. Next, `CNCC(O)c1ccc(Cl)c(Cl)c1` (stereo not given): 0%; `C[n+]1c2n(c3ccccc31)N=C(c1ccccc1)C[Se]2`: 3.7%. Compound `CC(C)N1CC=C(c2c[nH]c3ccccc23)CC1` displayed an IFI of 0%. In turn, `CC1CC(C)CC(C)C(O)C(C#N)=CC=CCC(C2CCCC2C(=O)O)OC(=O)CC(O)C(C)C1` (stereo not given) showed an IFI of 25.8%. The result for `C=C[C@H]1CN2CC[C@H]1C[C@@H]2[C@@H](OC(=O)C(C)C)c1ccnc2ccccc12` reads 1.67%; that for `CCN1CC=C(c2c[nH]c3ccccc23)CC1`, 0%; that for `O=C1Nc2ccccc2Sc2ccccc21`, 2.4%. Next, `C=CC1CN2CCC1CC2[C@H](O)c1ccnc2ccc(O)cc12` (stereo not given in full): 0%; `C=C[C@H]1CN2CC[C@H]1C[C@H]2[C@H](OC(=O)c1ccc(F)cc1)c1ccnc2ccccc12`: 0.84%. The result for `C(=C\c1ccccc1)/CNC1CCN(Cc2ccccc2)CC1` reads 14.3%. `CCc1cc2c(cc1-c1csc(NC(=N)N)n1)C(C)(C)CCC2(C)C` showed an IFI of 5.16%. For the compound `c1ccc(-c2nn(-c3ccccc3)[n+](-c3ccccc3)n2)cc1`, the IFI came out at 11.2%.

In the case of `CC[C@@]1(O)C[C@H](O[C@@H]2CC(N(C)C)[C@@H](O[C@@H]3C[C@@H](O)[C@@H](O[C@@H]4CCC(=O)[C@@H](C)O4)C(C)O3)[C@@H](C)O2)c2c(cc3c(c2O)C(=O)c2c(O)ccc(O)c2C3=O)[C@H]1C(=O)OC` (stereo not given in full), the IFI is 21.4%. The result for `COc1cc2c(O[C@@H]3O[C@H](CO)[C@@H](O)[C@H](O)[C@H]3O)c3c(c(-c4ccc5c(c4)OCO5)c2cc1OC)C(=O)OC3` reads 12.4%; that for `CNC1CC2OC(C)(C1OC)n1c3ccccc3c3c4c(c5c6ccccc6n2c5c31)C(=O)NC4O` (stereo not given), 28.6%. Turning to `CCC(C)(O)C(=O)O[C@H]1C(=O)OC2CC3C(C)=C[C@H](O)[C@@H](O)[C@]3(C)C3C24CO[C@]3(O)[C@H](O)[C@H](C)C14` (stereo not given in full), the IFI was found to be 7.69%. The result for `CC[C@H]1CN2CCc3cc(OC)c(OC)cc3[C@@H]2C[C@@H]1C[C@H]1NCCc2cc(OC)c(OC)cc21` reads 23.8%. The result for `COc1ccc(Cn2cccc(C(=O)Nc3ccc(OC)cc3)c2=O)cc1` reads 5.26%; that for `C[C@@H]1CC[C@H]2[C@@H](C)C(=O)O[C@@H]3O[C@@]4(C)CC[C@@H]1[C@]32OO4`, 3.19%; that for `O=C1Cc2ccccc2C(=C2CCNCC2)c2ccsc21`, 0%. With `c1cncc(CCNc2nccn3c(-c4ccc5ccccc5c4)cnc23)c1`, the IFI was 0%. The result for `COc1ccc(C[C@H]2NC[C@H](O)[C@H]2OC(C)=O)cc1` reads 33.6%. The result for `C=C[C@H]1CN2CC[C@H]1C[C@@H]2[C@@H](OC(=O)CC)c1ccnc2ccccc12` reads 1.02%.

`CCOC(=O)c1ccc2nc(C)cc(Nc3ccc(N4CCCCC4)cc3)c2c1` yielded an IFI of 1.12%. The result for `O=C1C(Nc2ccc(F)cc2)=C(N2CCCCC2)C(=O)c2ccccc21` reads 12.5%; that for `Cn1ccnc1C(=O)NNc1ncc(C(F)(F)F)cc1Cl`, 13.3%. `Cc1nc2c(=O)n(C)c(=O)nc-2n(C)n1`: the IFI was determined as 25%. On to `C=CC1CN2CCC1C(C(O)c1ccnc3ccc(OC)cc13)C2` (stereo not given), for which the IFI worked out at 2.29%. The result for `CCN1C(=O)N(CC(N)=O)C(=O)C12CCN(Cc1ccc(N(C)c3ccccc3)cc1)CC2` reads 3.85%.

As to `C=CC1CN2CCC1CC2C(OC(=O)C1CC1)c1ccnc2ccccc12` (stereo not given), the IFI is 0%. The result for `CCOC(=O)c1c(CN2CCN(CC#N)CC2)n(Cc2ccccc2)c2cc(Br)c(O)cc12` reads 2.27%; that for `CCCCCCCCCCCCn1ccc(=N)cc1`, 15.4%. The result for `CC[n+]1c(/C=C/c2ccc(SC)cc2)ccc2ccccc21` reads 8.42%. `Cc1nc(Oc2ccc3ccc(=O)oc3c2)c2c3c(sc2n1)CCCCC3` came in with an IFI of 0%. Next, `O=C(Nc1ccc(SC(F)(F)F)cc1)Nc1cccnc1N1CCC(C(F)(F)F)CC1`: 7.34%. `COc1cc2c3c(c4cc(OC)c(OC)cc4c2cc1OC)CN1CCC[C@@H]1C3` had an IFI of 5.26%. Take `O=[N+]([O-])c1cc(C(F)(F)F)ccc1N1CCCN(C(=S)Nc2cccc(C(F)(F)F)c2)CC1`: the IFI turned out to be 2.63%. Next, `CCCCCCn1c(=O)c(C(=O)NCC[N+](CC)(CC)CC)c(O)c2ccccc21`: 5.46%.

The compound `CC1OC(=O)C(C(C)C)NC(=O)C(C(C)C)OC(=O)C(C(C)C)NC(=O)C(C)OC(=O)C(C(C)C)NC(=O)C(C(C)C)OC(=O)C(C(C)C)NC(=O)C(C)OC(=O)C(C(C)C)NC(=O)C(C(C)C)OC(=O)C(C(C)C)NC1=O` (stereo not given) had an IFI of 27.7%. Next, `O=C(Nc1ccc(Oc2ccc(OC(F)(F)F)cc2)cc1)C1CC1`: 1.57%.

For `O=C(NNC(=O)c1csnn1)c1ccc(C(F)(F)F)cc1`, the IFI is 3%. Regarding `CCCc1cc(O)c2c3c(c(=O)oc2c1)CN(C)CC3`, the IFI amounted to 0%. Compound `CC(Cc1ccccc1)NCCCCCCCNC(C)Cc1ccccc1` (stereo not given) gave an IFI of 1.85%. The result for `Cc1onc(O)c1CC(N)C(=O)O` (stereo not given) reads 0%; that for `CCCCCc1cc(O)c2c3c(c(=O)oc2c1)CN(C)CC3`, 2.29%; that for `OCCC1CN(Cc2cccc(Cl)c2)CCN1Cc1ccccc1` (stereo not given), 7.69%. The result for `COc1cc(OC)c(OC)cc1CN1CCN(C(C)C)CC1` reads 0%; that for `CC(=O)N(C1=C(N(C)C)C(=O)c2ccccc2C1=O)c1cccc(F)c1`, 15.4%. The result for `C=C[C@H]1CN2CC[C@H]1C[C@@H]2[C@@H](O)c1ccnc2ccccc12` reads 4.69%.

In turn, `C/C(=C\c1csc(C)n1)[C@@H]1C[C@@H]2O[C@]2(C)CCC[C@H](C)[C@H](O)[C@@H](C)C(=O)C(C)(C)[C@@H](O)CC(=O)O1` gave an IFI of 4.69%. The result for `Oc1ccc(-c2ccnc3cc(Cl)ccc23)cc1CNC1CN2CCC1CC2` (stereo not given) reads 0.855%; that for `C=CC1CN2CCC1CC2C(OC(=O)c1ccco1)c1ccnc2ccccc12` (stereo not given), 0%. Compound `CC(=O)O[C@]1(C(C)=O)CCC2C3C=CC4=CC(=O)CC[C@]4(C)C3CC[C@@]21C` (stereo not given in full) gave an IFI of 2.33%. Regarding `COc1cc(CN2CC3CC(C2)c2cccc(=O)n2C3)ccc1O` (stereo not given), the IFI turned out to be 0%. Next, `O=C(Nc1ccc(Cl)cc1)Oc1ccccc1`: 4.8%. Next, `CCCCCCc1cc(O)c2c3c(c(=O)oc2c1)CCC(C)C3` (stereo not given): 7.25%; `COc1ccccc1/C=C/CN(CCN1CCN(S(=O)(=O)c2cccc(C(F)(F)F)c2)CC1)C(=O)Cc1ccccc1`: 0.926%; `CN1C[C@@H](CSc2ccccn2)C=C2c3cccc4[nH]cc(c34)C[C@H]21`: 4.88%.

For the compound `C=C[C@H]1CN2CC[C@H]1C[C@@H]2[C@@H](OC(=O)CCCCl)c1ccnc2ccccc12`, the IFI came out at 0%. The result for `CO/C(=C\C(N)=O)C(C)C(/C=C/c1csc(-c2csc(C(C)/C=C/C=C/C(C)C)n2)n1)OC` (stereo not given) reads 11.5%; that for `CCOC(=O)c1c(S(=O)(=O)Nc2ccc(C(C)(C)C)cc2)c(-c2ccccc2)n(-c2ccccc2)c1C`, 3.09%; that for `Cc1ccn2c(NC(C)(C)CC(C)(C)C)c(-c3ccccc3OC(=O)Cc3ccccc3)nc2c1`, 3.74%.

Consider `Cc1n(-c2ccccc2)c2c([n+]1C)C(=O)c1ccccc1C2=O`, for which the IFI is 33.3%. On to `CCOC(=O)c1c(C)n(Cc2ccccc2)c2c1cc(O)c1c2c(-c2ccccc2)nn1-c1ccccc1`, for which the IFI turned out to be 0%.

As for `FC(F)(F)c1cccc(Nc2nnnc3ccccc23)c1`, the IFI came out at 1.3%.

`CCCCCCCc1cc(O)c2c3c(c(=O)oc2c1)CCC(C)C3` (stereo not given) registered an IFI of 0%. For the compound `N#CC1=C(N)Oc2c(c(=O)oc3ccccc23)C1c1ccoc1` (stereo not given), the IFI turned out to be 3.45%. Next, `CCOC(=O)CC(C)(O)P(=O)(OC)OC` (stereo not given): 0%; `Nc1ccc(C(=O)NN=Cc2cccc([N+](=O)[O-])c2)cc1`: 0%. For the compound `C=C1[C@@H](C)[C@H]2[C@H](Cc3ccccc3)NC(=O)[C@]23C(OC(C)=O)C=C[C@@](C)(O)C(=O)[C@@H](C)CC=C[C@H]3[C@@H]1O` (stereo not given in full), the IFI is 6.9%.

Regarding `CC1CC2CCC(O2)C(C)C(=O)O[C@H](C)CC2CCC(O2)C(C)C(=O)OC(C)CC2CCC(O2)C(C)C(=O)O[C@H](C)CC2CCC(O2)C(C)C(=O)O1` (stereo not given in full), the IFI amounted to 19.2%. The result for `CC[C@H]1CN2CCc3cc(OC)c(OC)cc3[C@@H]2C[C@@H]1C[C@H]1NCCc2cc(O)c(OC)cc21` reads 32.3%.

Turning to `CN(C)c1ccc(/C=C2\C(=O)NC(=O)N(Cc3ccccc3Cl)C2=O)cc1`, the IFI is 0%. In the case of `CC(C)[C@@]1(NC(=O)[C@@H]2C[C@@H]3c4cccc5[nH]cc(c45)C[C@H]3N(C)C2)O[C@@]2(O)[C@@H]3CCCN3C(=O)[C@H](CC3CCCCC3)N2C1=O`, the IFI worked out at 9.52%.

For the compound `CO[C@H]1[C@H](C)[C@@H]([C@H]2CC[C@H]([C@@H]3CC[C@H]([C@@]4(C)O[C@]5(O[C@H](C[C@@H]6O[C@](O)([C@@H](C)C(=O)O)[C@@H](C)[C@H](O[C@H]7CC[C@H](OC)[C@@H](C)O7)[C@@]6(C)OC)C[C@@H](OC)[C@H]5C)[C@H](C)[C@H]4OC)O3)O2)O[C@](C)(O)[C@@H]1C`, the IFI was 15.5%.
